Variants at the floor of the assay are shown more often than the library holds them.
B1: TPR 5TU (parent)
chain: GGAUCUUCUCGAUCUAACAAAAAAGACAAAUCUGCCACAAAGCUUGAGAGCAUCUUCGGAUGCAGAGGCGGCAGCCUUCGGUGGCGCGAUAGCGCCAACGUUCUCAACUAUGACACGCAAAACGCGUGCUCCGUUGAAUGGAGUUUAUCAUG

Variants of: B1
Assay: polymerase ribozyme fitness, log enrichment relative to wild type (log ratio); higher = more active; in vitro selection for triplet polymerase activity
How it was run: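 One round of in vitro selection, in triplicate, was applied to PCR-built, transcribed mutant libraries of each subunit of a heterodimeric triplet polymerase ribozyme. The steps were annealing with a biotinylated primer, partner subunit and triplets, incubation frozen at −7 °C, gel excision of extended constructs, streptavidin-bead capture and RT-PCR. Fitness is the logarithm, base 2, of genotype enrichment over wild-type enrichment from inverse-variance-weighted replicate averages of Illumina-sequenced inputs and outputs, keeping genotypes with ≥10 input reads and ≥1 read per output.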

Variant | polymerase ribozyme fitness (log ratio)
G83C G88C | ≤ -4.2
G83C G88C C149G | ≤ -4.2
G83C G92A U127A G128U | ≤ -4.2
G83C G92U A137G | -3.45
G83C G94A A98U C125U | -1.82
G83C G100U U135G G141U A150C | ≤ -4.2
G83C G112A | ≤ -4.2
G83C G117U | -1.62
G83C G133A | -3.62
G83C G136A | -0.101
G83C G136C U146G | -3.41
G83C G136U | -2.46
G83C G140A | ≤ -4.2
G83C G152C | -3.16
G83C U90G A91U G92C C123A U151C | ≤ -4.2
G83C U101G A106U | -3.95
G83C U102G G143A | ≤ -4.2
G83C U104G | -2.14
G83C U145C | -2.18
G83C U146A | -0.565
G83C U148A | -3.1

Variant | polymerase ribozyme fitness (log ratio)
G83U | -0.478
G83U A89C | -0.953
G83U A89G C96U C99G G100C C123U U144C | ≤ -4.2
G83U A91C U148A | ≤ -4.2
G83U A91G G143A A147C | ≤ -4.2
G83U A97G A142U | -3.29
G83U A97U G117U G133A | ≤ -4.2
G83U A106U C131G G133C G140U | ≤ -4.2
G83U A110U | -4.17
G83U A113U | -2.14
G83U A122C G133C A147C | -2.76
G83U C87U | -1.25
G83U C87U A89C G141A A142G | ≤ -4.2
G83U C93A C105G | ≤ -4.2
G83U C93G | ≤ -4.2
G83U C93U A113C A122C | ≤ -4.2
G83U C95G | -1.54
G83U C95G G124U U148C | ≤ -4.2
G83U C95U C118U U144A | -3.4
G83U C96U | -0.875
G83U C99G U145G | ≤ -4.2

Variant | polymerase ribozyme fitness (log ratio)
G83U C103G A107U | ≤ -4.2
G83U C123A | -0.709
G83U C123A C132G G141U | ≤ -4.2
G83U G88A | ≤ -4.2
G83U G100U | -3.9
G83U G112C A115G C131U C132U | ≤ -4.2
G83U G133C | -2.09
G83U G140A U144A | ≤ -4.2
G83U G140U G152U | -3.93
G83U G143U | -1.68
G83U U101G C108A A115U G141A | ≤ -4.2
G83U U139G | -0.239
G83U U146A | -1.19
G84A | -0.547
G84A A89U G136U | -2.91
G84A A91U | ≤ -4.2
G84A A98G | -2.7
G84A A110G C114G | ≤ -4.2
G84A A115C | -0.594
G84A A115U G126A | -4.17
G84A A119U | -0.787

Variant | polymerase ribozyme fitness (log ratio)
G84A A121C U127G | -2.56
G84A A137U U148C | ≤ -4.2
G84A A138G G141A U144G | ≤ -4.2
G84A A142C | -1.65
G84A A150G | -0.63
G84A C85G A113U A120G G126U | ≤ -4.2
G84A C87U U109G U139G U144C | ≤ -4.2
G84A C93U | -1.83
G84A C105U | 0.191
G84A C105U A113C C129A | ≤ -4.2
G84A C114A G136C | ≤ -4.2
G84A C131A | -2.79
G84A C132G | -3.59
G84A G86U C95A C99U U101A C123G | ≤ -4.2
G84A G88A A110U U135C | ≤ -4.2
G84A G88U | -3.57
G84A G92U A107U G140C G143C | ≤ -4.2
G84A G100C | ≤ -4.2
G84A G112A | ≤ -4.2
G84A G128U G141C | ≤ -4.2

From the RNAGym collection of RNA variant scans (doi:10.1073/pnas.2313332121)
